In the supplement of paper PMC10126150:
Sequences with one replicate were seen in a single cluster, so their values are uncertain.

Tested on: ATP
Assay: switch fluorescence ratio, 500 uM ATP over buffer (Cy3 cluster intensity, sum of 5 cycles each) (fold (ratio)); higher = stronger signal-on switching upon ATP binding; sequences stand for … in TCGTCGGCAGCGTCAGATGTGTATAAGAGACAGTTTTTTTTTTTTTTTTTTTTTTTTT…TC
Conditions: aptamer strand: ATP DNA aptamer (quencher-CACCTGGGGGAGTATTGCGGAGGAAGG + anchor), 100 nM annealed; ATP concentration: 500 uM; one replicate
Method in brief: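 Per cluster, summed Cy3 intensity from the target cycles was divided by that from the buffer cycles to give the fluorescence ratio, then averaged per switch-domain sequence. Clusters outside 100-1000 RFU were excluded. The Cy3-labelled switching-strand clusters, on a modified Illumina MiSeq flow-cell, were annealed to 100 nM quencher-labelled ATP aptamer and imaged in selection buffer, then after 15 min with 500 uM ATP at 22 °C, for five cycles with NaOH stripping and re-annealing between them.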
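Note: ATP exposure 15 min at 22 °C before imaging.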

Row | Sequence | switch fluorescence ratio
1 | GGTACTGTTA | 1.05
2 | AATTCGGGAT | 0.991
3 | ACGTAGGACC | 1.04
4 | CACGATCTGA | 1.01
5 | GTCGGCGGTC | 0.945
6 | GGCAGAGTAT | 1.02
7 | GCGGTATCGC | 0.983
8 | GCACGTAAG | 1.04
9 | TAAGGTACGG | 1.06
10 | ATTGAAAAGT | 1.02
11 | AAATAGGCTT | 0.954
12 | CGCCAGTTAG | 0.975
13 | GAGGGAACTC | 0.97
14 | TAACCGTCAT | 1.05
15 | CTAGGTCTAT | 1.02
16 | TTTGCCAGGT | 1.06
17 | TTCGTACAGG | 1.05
18 | ATCTTAGTCA | 1
19 | GTCAACGTGG | 0.979
20 | TCGCCCGGGA | 1.03
21 | CGGCGTTTGT | 0.994
22 | TCAAGGACCT | 1.16
23 | GCCTTGCGTG | 0.983
24 | GTAAGAGTCT | 0.989
25 | ATAAAATCAA | 1
26 | AGGGTAGGCT | 1.03

Row | Sequence | switch fluorescence ratio
27 | GTTGAGAAAG | 0.969
28 | GGAGACTTGT | 0.997
29 | AAGTATACCT | 1.1
30 | TTAACCGGCC | 1.94
31 | ACGAATGCTC | 1.47
32 | ATTAGCAGGG | 0.99
33 | TACGATCGGT | 0.975
34 | CCCCACACCC | 1.58
35 | GTGCGACTCC | 1.33
36 | CAGTAGTAA | 1.64
37 | TAATGAATCA | 0.955
38 | CGATGCCAAA | 1.05
39 | GGGAAAAGAG | 0.97
40 | GTCCATTGTC | 0.97
41 | GTGGGAGAGG | 1.04
42 | GAAAAGCTGT | 0.952
43 | CGTATTGGAT | 0.993
44 | CATAGTTATT | 1
45 | GACGTCCGAA | 1.09
46 | GGATTGTGA | 1.02
47 | ATGCAGCCTG | 1.02
48 | AAACAGGTCC | 1.05
49 | AGCAACACG | 1.55
50 | TTTGTCTAAC | 0.994
51 | CCACAAGTAA | 1.41
52 | GGGGTACTGT | 0.999

Row | Sequence | switch fluorescence ratio
53 | ACGTAATATG | 1.28
54 | AACTCATATG | 0.975
55 | AACGTAGGCC | 1.02
56 | AGACGGCAAT | 1.81
57 | AGTTCATAGT | 0.953
58 | GGTGCGGCAC | 0.988
59 | TCGGAATAGG | 1.06
60 | GCCGAGGGCT | 0.996
61 | GCACCAACGA | 1.54
62 | GTGGGTACGC | 1.03
63 | TGGTCACTGT | 0.993
64 | GATTTACTT | 1.04
65 | CCCAATATGC | 2.56
66 | AAAGGAACGA | 0.954
67 | TCGTAACCTT | 1.55
68 | ATTTGACTA | 1
69 | ATCGCCGTTT | 0.989
70 | CGGCACGTCT | 1.02
71 | AGGTGCACTC | 1.03
72 | GGCTTTAGAC | 1
73 | AACCTACCTT | 1.46
74 | TAACAGCCAC | 1.15
75 | CCGATCTATG | 1.06
76 | TAGAGATTAA | 0.985
77 | TATAGGGCGA | 0.957
78 | ATGTTCCACT | 0.995

Row | Sequence | switch fluorescence ratio
79 | TCGAGCAAAG | 2.66
80 | AGGGTTTCGG | 0.977
81 | CAGCTTTTCT | 1
82 | TTGTGGGCCG | 0.981
83 | TGGTAGTCGC | 0.957
84 | ACCGTCCGCT | 1.5
85 | GTAATCGTTA | 1.02
86 | TTTTCCCTT | 1
87 | TCGAGCTTCT | 1.02
88 | GAAGGCTTCG | 0.957
89 | GTTCTTTCTA | 1
90 | TAACTTTGTT | 0.978
91 | GTCTTCGGAA | 1.15
92 | CGCAACATCA | 1.34
93 | CGTTGACCAA | 1.03
94 | CTCTTCCTTT | 1.31
95 | ATGCCCCGCT | 0.976
96 | TATAAGTATG | 1.03
97 | GGGCCCGTGG | 0.99
98 | CGAGGCAAGG | 3.41
99 | TCGGTCACAA | 1.02
100 | AAACGCAGAT | 2.42
101 | AATCCGGGCT | 1.01
102 | GTTCCAAGGG | 1.02
103 | TATGGTACGC | 1.04
104 | GACCTTGTTT | 1

Row | Sequence | switch fluorescence ratio
105 | GTTATTTTTG | 1.01
106 | GGCCCATCTA | 1.03
107 | CTCCTGTGAT | 1.5
108 | GGGGCATACA | 1.05
109 | TATCCGTACA | 1.1
110 | ACGTTATGAT | 1.23
111 | TACCCATTTT | 1.02
112 | TGTGTGTAAT | 1.02
113 | CAGCTAGTAA | 0.997
114 | GCTCATTCTC | 1
115 | GGCCCATGGG | 1.03
116 | AAACCACGAT | 1.05
117 | AGTGATGATT | 1
118 | AGGCGACGTG | 1.01
119 | CGTGCCAGGA | 1.02
120 | AAAATTCAGA | 0.948
121 | TAAACTTTCA | 1.34
122 | GGGATCGCGA | 1.02
123 | GATCGTGATG | 1.1
124 | TTGGTATGTT | 1.05
125 | CTGGGTGAAA | 1.02
126 | CTAAGTGCTT | 0.993
127 | AGAGGGTCGT | 0.966
128 | AGTCGTGAGG | 1.01
129 | TCCTAGACGC | 1.25
130 | AGTAGTACGA | 1.11

Row | Sequence | switch fluorescence ratio
131 | GTGGTAGTT | 1.02
132 | ATCACCTTCT | 1.68
133 | ATACGAAGTT | 0.99
134 | AATTTCGCCA | 1.06
135 | CGTGTGAGAT | 1.01
136 | CCGAGATGAC | 2.89
137 | TGCGACTTT | 1.01
138 | GACCGAATCA | 0.989
139 | CTTAGTTGT | 1
140 | TTGACAAGAG | 0.987
141 | CCGATTTTTG | 0.971
142 | CTATTGGTGA | 0.991
143 | ATTGGGAG | 1.01
144 | AAGAAGGCGT | 0.998
145 | AGCCAATGGC | 1
146 | AATACCTTCG | 2.22
147 | TATCATCCTA | 0.999
148 | CCTAGCCTGA | 1.05
149 | CTCGTAGACC | 0.994
150 | ACTAACTAGA | 1.09
151 | TAACAGCCTT | 1.02
152 | CGGCAACTCG | 1.13
153 | ACAGGCATTA | 1.1
